Results on 85 compounds are retold here after PubChem BioAssay AID1346428 (National Center for Advancing Translational Sciences (NCATS), 2018).

SMILES strings stand for the structures. Where “and” joins values, the source holds several entries; their conditions need not be identical. Equal values may be shown once. Hit rate of the full screen: of about 48,000 compounds, about 1,200 (2.5%) were called active. Another 2% or so got no clear call; they are omitted.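 How the source made its calls: active means activation of at least 60% and not above a set upper limit (about 1 call in 100 departs from these limits); inconclusive means activation of 40% to 60%, or above that upper limit; inactive means activation under 40%.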 The list shows a part of the results.

For the experiment, the target named is Probable G-protein coupled receptor 32 (Homo sapiens) (UniProt O75388). Kind of experiment: qHTS for Agonists of Human Resolvin D1 Receptor DRV1. Further: 0% is about no effect. The following applies: CHO-K1 GPR32 beta-arrestin PathHunter luminescence, 90 min; at 76.9 µM; active compounds read high; zero percent set by DMSO-only wells. In short, it runs like this: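 Readings come from a cell-based beta-arrestin complementation format: CHO-K1 GPR32 stable cells (2,500/well) treated 90 min with compounds, then beta-Gal substrate added for 1 h before chemiluminescence imaging.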
Chain of UniProt O75388 (O75388 whole entry, looked up): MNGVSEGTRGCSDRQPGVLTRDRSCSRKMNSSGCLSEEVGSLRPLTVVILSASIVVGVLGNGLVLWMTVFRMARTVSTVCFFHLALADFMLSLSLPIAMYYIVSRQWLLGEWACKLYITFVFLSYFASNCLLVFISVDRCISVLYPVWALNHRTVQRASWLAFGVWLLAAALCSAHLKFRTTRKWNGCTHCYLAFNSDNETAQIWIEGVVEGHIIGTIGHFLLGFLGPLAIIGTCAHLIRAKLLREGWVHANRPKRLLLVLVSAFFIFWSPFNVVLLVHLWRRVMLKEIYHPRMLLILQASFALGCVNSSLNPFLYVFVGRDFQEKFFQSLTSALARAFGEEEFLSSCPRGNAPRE
A general note: Quantitative high-throughput screening tests each substance at several concentrations.
With `CCCCOc1ccc(C(=O)Nc2cccc(-c3nc4ccccc4o3)c2C)cc1`, the activation was inactive: 13.9%.

`Cc1nc2nc(NCc3ccc(Br)cc3)[nH]n2c(=O)c1Cc1ccccc1`: the activation is inactive: -1.22%.

Take `CC(C)c1ccc(NC(=O)c2ccc(=O)n(Cc3ccccc3)c2)cc1`: the activation was inactive: 23.7%.

As for `CCc1ccc(-n2c(=O)c3ccccc3n(Cc3ccccc3C#N)c2=O)cc1`, the activation is inactive: -9.2%.

On to `CCCCC(CC)CNC(=O)CCCCCn1c(=O)[nH]c2ccsc2c1=O` (stereo not given), for which the activation was active: 79.9%.

Consider `O=C(c1ccc2c(c1)N(Cc1ccc(Cl)cc1)C(=O)c1ccccc1S2(=O)=O)N1CCOCC1`, for which the activation is inactive: -11.6%.

Turning to `CCCC(=O)Nc1ccc2oc(-c3ccc(O)c(Br)c3)nc2c1`, the activation is inactive: -6.86%.

For the compound `Fc1ccc(N2CCN(c3ncnc4onc(-c5ccc(Cl)cc5)c34)CC2)cc1`, the activation was inactive: 13%.

For the compound `COc1ccc(OC)c(NC(=O)C2=C(C)C(=O)OC23CCN(C(C)C)CC3)c1`, the activation is inactive: 28.7%.

Turning to `O=C(CSc1nc2c(oc3ccccc32)c(=O)n1-c1ccccc1)Nc1ccc(F)c(Cl)c1`, the activation is inactive: 3.24%.

`COc1cccc(C2C(C(N)=O)=C(C)Nc3ncnn32)c1` (stereo not given): the activation was inactive: -3.38%.

Consider `Cc1ccc(N(CC2=NCCN2)c2cccc(O)c2)cc1`, for which the activation was inactive: -0.276% and inactive: -9.9%.

On to `CCOC(=O)c1c(NC(C)=O)c2c3c(sc2n1Cc1cc(C)ccc1C)CCCC3`, for which the activation is inactive: 1.59%.

Turning to `CCOc1ccccc1NC(=O)Cn1c(=O)n(Cc2ccco2)c(=O)c2sc3ccccc3c21`, the activation is inactive: -4.96%.

On to `COc1cccc(-n2c(=O)c3c(C)c(C)sc3n(Cc3ccccc3C#N)c2=O)c1`, for which the activation is inactive: -14.5%.

For the compound `CCOC(=O)c1ccccc1NC(=O)c1c(C)oc2ncnc(N3CCOCC3)c12`, the activation is inactive: -12.1%.

Turning to `COc1ccc(-c2nc3sc(CCNC(=O)C(=O)Nc4ccccc4C#N)c(C)n3n2)cc1`, the activation is inactive: -10.5%.

Consider `CCOc1ccc(CNC(=O)c2cc3ccccn3n2)cc1`, for which the activation is inactive: 2.45%.

As to `COCCCNC(=O)c1ccc(Cn2c(=O)c3ccccc3n(Cc3ccc(Cl)cc3)c2=O)cc1`, the activation is inactive: -2.23%.

As to `Cc1cccc(-n2c(SCC(=O)Nc3ccc(C)c(C)c3)nc3n[nH]c(C)c3c2=N)c1`, the activation is inactive: -2.94%.

With `Cc1ccc(C(=O)N(Cc2ccco2)c2ccccn2)cc1`, the activation is inactive: -1.8%.

As to `COc1cccc(-c2nn(C)c3sc(C(=O)NCc4ccc(OC)cc4OC)cc23)c1`, the activation is inactive: -5.17%.

`COc1ccc(CC(=O)NCC(c2cccs2)S(=O)(=O)c2ccc(F)cc2)cc1` (stereo not given): the activation is inactive: 14.3%.

Turning to `Cc1ccc(CNC(=O)c2c(Nc3ccccc3C)sc(C(=O)c3ccc(F)cc3)c2N)cc1`, the activation was inactive: -62.3%.

For the compound `O=C(CCn1c(=O)c2ccccc2n(CC(=O)Nc2ccc(F)cc2)c1=O)NCCc1ccccc1`, the activation is inactive: 15.6%.

For the compound `COc1ccc(CCNC(=O)c2ccc(Cn3c(SCc4ccccc4)nc4cccnc43)cc2)cc1`, the activation was inactive: 9.33%.

Consider `CC(C)c1cc(-c2nc(-c3ccc(Cl)cc3)no2)n[nH]1`, for which the activation is inactive: 29.7%.

On to `CCc1cnc2c(c1SC(C(C)=O)C(=O)N(C)C)c(=O)n(C)c(=O)n2C` (stereo not given), for which the activation was inactive: 5.55%.

Consider `CCOc1ccccc1NC(=O)C1=C(C)Nc2ncnn2C1c1ccco1` (stereo not given), for which the activation was inactive: 27.2%.

Consider `COc1cc(NC(=O)c2nn(C)c3c2COc2ccccc2-3)cc(OC)c1OC`, for which the activation is inactive: -0.897%.

Consider `Cc1ccc(CNC(=O)c2c(Nc3c(C)cccc3C)sc(C(=O)c3ccccc3)c2N)cc1`, for which the activation is inactive: -43.7%.

As for `CCOc1ccc(C2C(C(N)=O)=C(C)Nc3nc(SCc4ccccc4F)nn32)cc1` (stereo not given), the activation is inactive: 4.87%.

`COc1ccccc1C(=O)Nc1ccc(C(=O)OCc2cc(=O)n3c4c(sc3n2)CCCC4)cc1`: the activation is inactive: -9.64%.

Take `CC(C)c1ccc(NC(=O)c2ccc(CN3CC(=O)N4CCCCC4C3=O)cc2)cc1` (stereo not given): the activation is inactive: -11%.

As to `Cc1cccc(NC(=O)Cn2c(=O)n(Cc3ccccc3)c(=O)c3oc4ccccc4c32)c1C`, the activation is inactive: -9.9%.

For the compound `CCc1ccc(C2CC(=O)Nc3c2c(=O)nc2c(C)cccn32)cc1` (stereo not given), the activation is inactive: 7.9%.

In the case of `COc1ccccc1NC(=O)c1cnn(-c2ccccc2)c1-n1cccc1`, the activation is inactive: -17.7%.

For the compound `COc1ccccc1CNC(=O)c1cc(S(=O)(=O)N2CCCC(C)C2)cn1C` (stereo not given), the activation was inactive: 17.7%.

As for `CCCCN(C)CCCNC(=O)c1cn(CC)c2ccc(S(=O)(=O)N3CCc4ccccc4C3)cc2c1=O`, the activation is inactive: 7.95%.

Take `COc1ccc(NC(=O)Nc2cc(C(=O)NCc3ccc(C)cc3)ccc2N2CCCC2)cc1`: the activation is inactive: -19.3%.

In the case of `Cc1ccc(-n2nc(C)c3c(C(F)(F)F)cc(-c4cccnc4)nc32)cc1C`, the activation was inactive: -13.9%.

As to `Cc1ccc2oc(-c3ccc(NC(=O)c4oc5ccc(Cl)cc5c4C)cc3)nc2c1`, the activation is inactive: 1.06%.

With `CCc1ccc(NC(=O)CC2C(=O)N(c3ccc(F)cc3)C(=O)N2Cc2ccc(F)cc2)cc1` (stereo not given), the activation is inactive: -18.1%.

Consider `O=C(c1cnn(-c2ccc(F)cc2)c1-n1cccc1)N1CCN(c2ccccc2)CC1`, for which the activation is inactive: 8.09%.

Consider `Cc1cccc(NC(=O)Cn2c(SCC(=O)NCc3ccccc3)nc3ccccc32)c1C`, for which the activation was inactive: -2.76%.

Take `CCOc1ccc(-c2cn3nc(CC(C)C)sc3n2)cc1`: the activation was inactive: 24.7%.

In the case of `O=C(NCCSCc1ccccc1)C1CCN(S(=O)(=O)Cc2ccccc2)CC1`, the activation is inactive: 33.5%.

Take `Cc1ccc(NC(=O)c2ccc(C)c(S(=O)(=O)N3CCCCCC3)c2)cc1`: the activation is inactive: 39%.

On to `COc1ccc(C)cc1NS(=O)(=O)c1ccc2oc(=O)c3ncn(C)c3c2c1`, for which the activation is inactive: -3.36%.

For `CCN(CC)c1ccc(C2C(C(N)=O)=C(C)Nc3nc(SCc4ccccc4Cl)nn32)cc1` (stereo not given), the activation was inactive: -5.72%.

Turning to `CCOC(=O)c1ccc(N=C2SC(C(=O)Nc3ccccc3)CC(=O)N2C)cc1` (stereo not given), the activation is inactive: 41%.

As for `COc1ccc(CNC(=O)C2(c3cccs3)CCOCC2)cc1`, the activation is inactive: -1.77%.

In the case of `Cc1ccccc1-c1nc(CN2CCC(C(=O)NC(C)C)CC2)c(C)o1`, the activation is inactive: -2.31%.

As to `CCCCc1nn2c(=O)cc(COC(=O)CNC(=O)COc3ccc(C)cc3)nc2s1`, the activation was inactive: 14%.

On to `CCN(CC)S(=O)(=O)c1cccc(C(=O)Nc2ccccc2C(=O)Nc2ccc(OC)cc2)c1`, for which the activation is inactive: -14.2%.

In the case of `CCOC(=O)C1=C(CN2CCN(c3ccc(C)cc3C)CC2)NC(=O)NC1c1ccc(OC)cc1` (stereo not given), the activation was inactive: -36.4%.

With `COc1ccc(N2CCN(CC(O)COc3c(OC)cccc3OC)CC2)cc1` (stereo not given), the activation was inactive: 6.36%.

With `CCOc1ccc(NC(=O)c2c(NCc3cccs3)sc3c2CCC(C)C3)cc1` (stereo not given), the activation was inactive: -9.32%.

Regarding `CC[n+]1c(/C=C/C=C2/N(C)c3ccccc3C2(C)C)sc2ccccc21`, the activation was inactive: 9.86%.

In the case of `CCc1ccc(CCOc2ccc(CC3SC(=O)NC3=O)cc2)nc1` (stereo not given), the activation was inactive: 27.5%.

Turning to `COc1ccccc1N(CC(=O)Nc1ccccc1C(F)(F)F)S(=O)(=O)c1ccc(C)cc1`, the activation was inactive: -23.8%.

For the compound `Cc1ccc(C)c(N2CCN(C(=O)Cn3nc(C)c4sc5ccccc5c4c3=O)CC2)c1`, the activation was inactive: -8.71%.

For the compound `COc1ccccc1NS(=O)(=O)c1cn(C)c(C)n1`, the activation is inactive: -8.49%.

Consider `COc1ccc(N2CC(NC(=O)COc3cccc(C)c3)CC2=O)cc1OC` (stereo not given), for which the activation is inactive: 7.14%.

For the compound `Cc1oc2ccc(O)c(CN3CCCCCC3)c2c1C(=O)Nc1cccc(C(F)(F)F)c1`, the activation is inactive: -3.91%.

Regarding `Cc1c(C(C)C)c(=O)n(-c2ccccc2)n1C`, the activation is inactive: -0.0154%.

Turning to `CCC(O)c1nc2ccccc2n1Cc1cc(C)ccc1C` (stereo not given), the activation is inactive: -6.34%.

For `COc1ccc(OC)c(NC(=O)C2CCN(S(=O)(=O)c3ccc4c(c3)CC(C)N4C(C)=O)CC2)c1` (stereo not given), the activation was inactive: 28.4%.

`CC(C)(C)c1ccc(/C=C/C(=O)Nc2ccc3c(c2)OCCO3)cc1`: the activation is inactive: 4.94%.

Consider `Cc1ccc(NC(=O)C2CCN(S(=O)(=O)c3ccc4c(c3)CCCC(=O)N4)CC2)cc1N(C)C`, for which the activation is inactive: 9.54%.

Consider `CCOc1ccc(NC(=O)CSc2nc3ccsc3c(=O)n2CCC(C)C)cc1`, for which the activation was inactive: -20.5%.

In the case of `COc1ccc(-c2nc(CSCC(=O)NCCC(C)C)c(C)o2)cc1OC`, the activation was inactive: -21.3%.

As for `O=C(CC1Sc2ccccc2NC1=O)Nc1cccc(C(F)(F)F)c1` (stereo not given), the activation was inactive: 31.2%.

`COc1ccc(OC)c(NC(=O)C(C)n2c(=O)c(-c3ccccc3NC(C)=O)nc3ccccc32)c1` (stereo not given): the activation was inactive: -28.1%.

Turning to `COc1ccc(OC)c(CNC(=O)NCc2noc3ccc(C)cc23)c1`, the activation was inactive: -13.8%.

With `Cc1cc(Nc2cccc(Cl)c2)nc2ccc(NC(=O)COc3ccc(Cl)cc3)cc12`, the activation is inactive: 37.4%.

As for `O=C(CSc1cn(CC(=O)N2CCCCC2)c2ccccc12)NCc1ccccc1Cl`, the activation was inactive: -15.6%.

As for `CC(C)c1ccc(NC(=O)c2cc3c(=O)[nH]c4ccccc4c3n2C)cc1`, the activation was inactive: 15%.

Take `CCN1C(=O)c2ccccc2S(=O)(=O)c2ccc(C(=O)NCc3ccccc3OC)cc21`: the activation is inactive: -24.7%.

Consider `CCC1CN(C(=O)N2CCC(C(=O)NCc3cccc(F)c3)CC2)c2cc(C)ccc2O1` (stereo not given), for which the activation is inactive: -15.4%.

Regarding `O=C(CN1C(=O)c2cccnc2Sc2ccccc21)Nc1cc(F)ccc1F`, the activation is inactive: -13.7%.

With `Cc1ccc(-n2nc(C)c3c(C(=O)NCCc4ccc(S(N)(=O)=O)cc4)cc(C)nc32)cc1`, the activation was inactive: -7.96%.

`CCN(CC)c1nn2c(=O)c(C(=O)NCc3ccccc3Br)cnc2s1`: the activation is inactive: -14.1%.

As to `Cn1nc(C(=O)NCc2ccccc2Cl)c2c1-c1ccccc1SC2`, the activation was inactive: -8.69%.

With `Cc1cccc(NC(=O)c2ccc(Cn3nc(N4CCN(c5ccccc5)CC4)ccc3=O)o2)c1C`, the activation is inactive: 38.2%.
